From PubChem BioAssay AID662 (National Center for Advancing Translational Sciences (NCATS), 2007)
Screen size: about 71,000 compounds; about 1,800 (2.5%) were called active. This list was built around the results that the source calls inconclusive (neither active nor inactive); the mix of calls is not that of the screen. Calls follow the shape of the dose curve; as a rule, active = well fitted activation curve with a large enough effect in the signal ratio, with a control signal flat (not every such curve was filed as active); inconclusive = small, poorly fitted or top-dose-only effect, or effect the other way, or a change in a side signal; inactive = flat fitted curve, though single readings scatter; the % refers to the signal ratio. Potencies beside an inconclusive call are fits to weak or partial responses and may not hold up.

Assay: Cell signaling CRE-BLA (Fsk stim); as to activity change, negative = inhibition: % of control where 0% means no effect
Settings: CHO CRE-bla reporter (cAMP response element driving beta-lactamase), forskolin EC10, beta-lactamase ratio; activity change, negative = inhibition: at 38.2 µM (top of the series) unless noted
Procedure, shortened: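 qHTS titration format; CRE-bla CHO reporter; stimulus EC10 NKH 477, a water-soluble forskolin. Read: CCF4 460/530 nm ratio. Potency expressed as AC50 for activators or inhibitors.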
Potency is read from the fitted curve at half-maximal effect; tags tell the direction and shape of the fitted curve.

SMILES | Potency | activity change, negative = inhibition
N#Cc1nc(-c2ccccc2Cl)oc1N1CCOCC1 | inconclusive: 10 µM [rising, partial curve] | 
Cc1cn(CC2COC(C)(C)O2)c(=O)[nH]c1=O (stereo not drawn) |  | inactive
CCOC(=O)c1c(C)[nH]c2cc(Br)c(OC)cc12 | inconclusive: 10 µM [rising, single point] | 
COc1ccc(C(=O)NCCn2cc(SCC(=O)NCc3ccco3)c3ccccc32)cc1 |  | inconclusive: -8.1%
Cc1ccc(-c2ccc(/C=N/n3cnnc3)o2)cc1Cl | inconclusive: 10 µM [rising, single point] | 
Cc1ccc(NC(=O)c2cccc(OCc3c(C)noc3C)c2)c(C)c1 | inconclusive: 5.01 µM [falling, single point] | 
O=C(CN1CCCCC1)Nc1ccc(F)c(Cl)c1 |  | inactive
C=CCn1c(=O)c(C(=O)NCCNCC)c(O)c2ccccc21 |  | inactive
Cc1ccccc1C(=O)OCn1nnc2ccccc2c1=O | active: 12.6 µM | 
CCCC[C@@H]1C[C@H]1C(NC(=O)c1ccco1)c1ccc(C(=O)OC)cc1 (stereo partly drawn) |  | inactive
C[n+]1ccccc1/C=N\O |  | inactive
CCOC(=O)c1nn(-c2ccc3c(c2)CCN3C(C)=O)cc1O | inconclusive: 12.6 µM [rising, single point] | 
COc1cccc2[nH]c3c(N4CCC(C)CC4)ncnc3c12 | active: 3.98 µM | 
COc1ccc(-c2csc(NC(=O)Cn3nc(C)cc3C)n2)cc1 |  | inactive
Cc1ccccc1N1CCN(Cc2c(C#N)c3ccccc3n2C)CC1 | inconclusive: 10 µM [rising, partial curve] | 
Cc1cc(C)n2nc3nc(N4CCCC4)nc(-c4ccccc4)c3c2n1 | inconclusive: 10 µM [rising, partial curve] | 
COC(=O)c1ccc(C(=O)OC)c(NC(=O)CCC(=O)O)c1 |  | inactive
CCN(CC)CCCN1C(=O)C(O)=C(C(C)=O)C1c1cccc(OC)c1 (stereo not drawn) |  | inactive
CCCCn1c(NC(C)=O)c(C#N)c2nc3ccccc3nc21 | inconclusive: 10 µM [rising, partial curve] | 
Cc1cccc(CNc2nc(-c3ccoc3)nc3ccccc23)c1 |  | inactive
N#Cc1nc(-c2ccco2)oc1N1CCN(c2cccc(Cl)c2)CC1 | inconclusive: 2.51 µM [rising, full curve, poor fit] | 
CCOC(=O)CNC(=O)c1cn(CC(C)C)c(=O)c2cc(OC)c(OC)cc12 | inconclusive: 7.94 µM [rising, partial curve] | 
CC(Sc1nc(N(C)C)nc(N2CCOCC2)n1)C(=O)Nc1ccccc1 (stereo not drawn) | inconclusive: 10 µM [rising, single point] | 
O=C(c1ccc(COc2c(F)c(F)c(F)c(F)c2F)o1)N1CCOCC1 |  | inactive
CCCC(=O)N(c1ccc(F)cc1)C1C=CS(=O)(=O)C1 (stereo not drawn) |  | inactive
Cc1ccc(NC(=O)CSc2n[nH]c(-c3ccncc3)n2)cc1C |  | inconclusive: 4.36%
Oc1ccccc1Nc1nc(NCC2CCCO2)c2ccccc2n1 (stereo not drawn) |  | inactive

SMILES | Potency | activity change, negative = inhibition
COCCn1c(=O)c(-c2ccc(OC)cc2)nc2cnc(Oc3cccc(Cl)c3)nc21 | inconclusive: 3.16 µM [rising, partial curve] | 
CCCSc1ncnc2c1oc1ccccc12 | inconclusive: 10 µM [rising, single point] | 
COCCNC(=O)CN(C)S(=O)(=O)c1ccc(Br)cc1 |  | inactive
CC(C)C(=O)C(C)(C)CCc1ccccn1 |  | inactive: 6.05% [at 7.6 µM]
CC(=O)Nc1ccc(S(=O)(=O)Nc2nc3ccccc3nc2N2CCCC2)cc1 | active: 12.6 µM | 
COc1ccc(NC(=O)c2cc(S(=O)(=O)N3CCCCC3)ccc2N2CCCCC2)cn1 |  | inactive
Cn1c(=O)c(-c2ccc(Cl)cc2)nc2cnc(OCc3ccccc3)nc21 |  | inconclusive: 25.6%
Cc1ccc(-c2nnn(CC(=O)NCc3ccccc3)n2)c(-n2cnnn2)c1 |  | inactive
COc1ccc(NC(=O)CNS(=O)(=O)c2cccc3nonc23)c(OC)c1 |  | inactive
CCSc1nc(C)nc2c1oc1ccccc12 | active: 12.6 µM | 
COc1cc(OC)c(C2C(C#N)=C(N)OC3=C2C(=O)CC(C)(C)C3)cc1OC (stereo not drawn) |  | inconclusive: 13.7% [at 7.6 µM]
CCSCCOC(=O)C1=C(C)NC2=C(C(=O)CCC2)C1c1coc2ccccc2c1=O (stereo not drawn) |  | inactive
CCOC1(NC(=O)c2ccccc2)C(C)=CC(=O)C=C1C |  | inconclusive: -6.67%
COc1cccc(C(=O)N2CCN(Cc3cccc(F)c3)CC2)c1 |  | inconclusive: -1.38%
O=C1c2ccncc2C(=O)N1CO |  | inconclusive: 13.9%
O=c1cnc2cnc(Oc3cccc(Cl)c3)nc2n1Cc1ccc(F)cc1 |  | inactive
CC(C)C[C@@H](CC(=O)N[C@H](CC(=O)N[C@@H]1CCCC[C@H]1C(=O)N[C@H](CC(=O)N[C@@H](CCC(=O)O)CC(=O)O)Cc1ccccc1)C(C)C)NC(=O)[C@@H]1CNCC[C@H]1N |  | inconclusive: -12.5%
Cc1noc(C)c1COC(=O)CCC(=O)c1ccc(F)cc1 | inconclusive: 3.16 µM [falling, single point] | 
COCCOC(=O)C1=C(C)NC2=C(C(=O)CCC2)C1c1ccc2c(c1)OCO2 (stereo not drawn) | inconclusive: 1.58 µM [rising, single point] | 
CCC(c1nnnn1CCc1ccccc1)N(Cc1ccco1)Cc1cc2cccc(C)c2[nH]c1=O (stereo not drawn) |  | inactive
CCn1cc(C(=O)N2CCN(c3ccccn3)CC2)c2cc(OC)c(OC)cc2c1=O | inconclusive: 2.51 µM [rising, partial curve] | 
Cc1cc(C)nc(SCC2COc3ccccc3O2)n1 (stereo not drawn) |  | inconclusive: 22.7%
CCCn1nc(C(=O)NCCc2ccc(S(N)(=O)=O)cc2)c2ccccc2c1=O | inconclusive: 10 µM [rising, partial curve] | 
CC(C(=O)NC1=NCCS1)N1C(=O)c2ccccc2C1=O (stereo not drawn) |  | inconclusive: -5.13%
O=C(CSc1ncn(-c2ccccc2)n1)N1CCc2ccccc21 | inconclusive: 10 µM [falling, single point] | 
COc1cccc(/C(O)=C2/C(=O)C(=O)N(CCN3CCOCC3)C2c2cccs2)c1 (stereo not drawn) |  | inactive
